# Measured values taken from the supplement of paper PMC8728848.
# This is one part of the list.
# B1: RBMC1 (Vibrio cholerae) (protein)
# chain: QQSQRVVTADNLMYLRSGFAIDAIGTTVNNLVGGPVQGTNGGVLRAPIALDQLQSVEVTSGLYNWGGYHIVAIKFTMKDGSSVLLGSTHYASNKKVETYTVPQGKRIKQINVWTGGWLVEGFQFVY
# What was measured:
# Assay in all cases: glycan array binding signal (z-score within array); higher = stronger binding
# Details in all cases: glycan notation: IUPAC condensed, linker removed
# [1] = target: Gal(b1-4)GlcNAc(b1-3)Gal(b1-4)GlcNAc(b1-3)Gal(b1-4)GlcNAc(b1-3)Gal(b1-4)GlcNAc(b1-2)Man(a1-3)[Gal(b1-4)GlcNAc(b1-3)Gal(b1-4)GlcNAc(b1-3)Gal(b1-4)GlcNAc(b1-3)Gal(b1-4)GlcNAc(b1-2)Man(a1-6)]Man(b1-4)GlcNAc(b1-4)[Fuc(a1-6)]GlcNAc
# How it was run: (§1)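 From the Consortium for Functional Glycomics database, 3228 arrays were curated, keeping only those whose protein sequence was available. Binding is given as a within-array Z-score averaged across arrays sharing a protein sequence and across linkers. Negative Z-scores can be read as non-binding.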
# [2] = target: Gal(b1-4)GlcNAc(b1-3)Gal(b1-4)GlcNAc(b1-3)Gal(b1-4)GlcNAc(b1-3)Gal(b1-4)GlcNAc(b1-2)[Gal(b1-4)GlcNAc(b1-3)Gal(b1-4)GlcNAc(b1-3)Gal(b1-4)GlcNAc(b1-3)Gal(b1-4)GlcNAc(b1-6)]Man(a1-6)[Gal(b1-4)GlcNAc(b1-3)Gal(b1-4)GlcNAc(b1-3)Gal(b1-4)GlcNAc(b1-3)Gal(b1-4)GlcNAc(b1-2)Man(a1-3)]Man(b1-4)GlcNAc(b1-4)[Fuc(a1-6)]GlcNAc
# How it was run: as §1
# [3] = target: Gal(b1-4)GlcNAc(b1-3)Gal(b1-4)GlcNAc(b1-3)Gal(b1-4)GlcNAc(b1-3)Gal(b1-4)GlcNAc(b1-3)Gal(b1-4)GlcNAc(b1-2)Man(a1-3)[Gal(b1-4)GlcNAc(b1-3)Gal(b1-4)GlcNAc(b1-3)Gal(b1-4)GlcNAc(b1-3)Gal(b1-4)GlcNAc(b1-3)Gal(b1-4)GlcNAc(b1-2)Man(a1-6)]Man(b1-4)GlcNAc(b1-4)GlcNAc
# How it was run: as §1
# [4] = target: Gal(b1-4)GlcNAc(b1-3)Gal(b1-4)GlcNAc(b1-3)Gal(b1-4)GlcNAc(b1-3)Gal(b1-4)GlcNAc(b1-3)Gal(b1-4)GlcNAc(b1-2)Man(a1-3)[Gal(b1-4)GlcNAc(b1-3)Gal(b1-4)GlcNAc(b1-3)Gal(b1-4)GlcNAc(b1-3)Gal(b1-4)GlcNAc(b1-3)Gal(b1-4)GlcNAc(b1-2)Man(a1-6)]Man(b1-4)GlcNAc(b1-4)[Fuc(a1-6)]GlcNAc
# How it was run: as §1
# [5] = target: Gal(b1-4)GlcNAc(b1-3)Gal(b1-4)GlcNAc(b1-3)Gal(b1-4)GlcNAc(b1-3)Gal(b1-4)GlcNAc(b1-3)Gal(b1-4)GlcNAc(b1-2)[Gal(b1-4)GlcNAc(b1-3)Gal(b1-4)GlcNAc(b1-3)Gal(b1-4)GlcNAc(b1-3)Gal(b1-4)GlcNAc(b1-3)Gal(b1-4)GlcNAc(b1-6)]Man(a1-6)[Gal(b1-4)GlcNAc(b1-3)Gal(b1-4)GlcNAc(b1-3)Gal(b1-4)GlcNAc(b1-3)Gal(b1-4)GlcNAc(b1-3)Gal(b1-4)GlcNAc(b1-2)Man(a1-3)]Man(b1-4)GlcNAc(b1-4)[Fuc(a1-6)]GlcNAc
# How it was run: as §1
# [6] = target: Gal(b1-4)GlcNAc(b1-3)Gal(b1-4)GlcNAc(b1-3)Gal(b1-4)GlcNAc(b1-3)Gal(b1-4)GlcNAc(b1-3)Gal(b1-4)GlcNAc(b1-3)Gal(b1-4)GlcNAc(b1-2)Man(a1-3)[Gal(b1-4)GlcNAc(b1-3)Gal(b1-4)GlcNAc(b1-3)Gal(b1-4)GlcNAc(b1-3)Gal(b1-4)GlcNAc(b1-3)Gal(b1-4)GlcNAc(b1-3)Gal(b1-4)GlcNAc(b1-2)Man(a1-6)]Man(b1-4)GlcNAc(b1-4)GlcNAc
# How it was run: as §1
# [7] = target: Gal(b1-4)GlcNAc(b1-3)Gal(b1-4)GlcNAc(b1-3)GalNAc
# How it was run: as §1
# [8] = target: Gal(b1-4)GlcNAc(b1-3)Gal(b1-4)GlcNAc(b1-3)[Gal(b1-4)GlcNAc(b1-3)Gal(b1-4)GlcNAc(b1-6)]GalNAc
# How it was run: as §1
# [9] = target: Gal(b1-4)GlcNAc(b1-3)Gal(b1-4)GlcNAc(b1-6)[Gal(b1-3)]GalNAc
# How it was run: as §1
# [10] = target: Gal(b1-4)GlcNAc(b1-3)Gal(b1-4)[Fuc(a1-3)]GlcNAc(b1-3)Gal(b1-4)[Fuc(a1-3)]GlcNAc
# How it was run: as §1
# [11] = target: Gal(b1-4)GlcNAc(b1-3)GalNAc
# How it was run: as §1
# [12] = target: Gal(b1-4)GlcNAc(b1-3)[Fuc(a1-3)GlcNAc(b1-6)]Gal(b1-4)Glc
# How it was run: as §1
# [13] = target: Gal(b1-4)GlcNAc(b1-3)[Gal(b1-4)GlcNAc(b1-6)]Gal(b1-4)GlcNAc
# How it was run: as §1
# [14] = target: Gal(b1-4)GlcNAc(b1-3)[GlcNAc(b1-6)]Gal(b1-4)GlcNAc
# How it was run: as §1
# [15] = target: Gal(b1-4)GlcNAc(b1-6)Gal(b1-4)GlcNAc
# How it was run: as §1
# [16] = target: Gal(b1-4)GlcNAc(b1-6)GalNAc
# How it was run: as §1
# [17] = target: Gal(b1-4)GlcNAc(b1-6)[Gal(b1-3)]GalNAc
# How it was run: as §1
# [18] = target: Gal(b1-4)GlcNAc(b1-6)[Gal(b1-4)GlcNAc(b1-3)]GalNAc
# How it was run: as §1
# Gal(b1-4)GlcNAc6P = target: Gal(b1-4)GlcNAc6P
# How it was run: as §1
# Gal(b1-6)Gal = target: Gal(b1-6)Gal
# How it was run: as §1
# Gal3S(b1-3)GalNAc = target: Gal3S(b1-3)GalNAc
# How it was run: as §1
# Gal3S(b1-3)GlcNAc = target: Gal3S(b1-3)GlcNAc
# How it was run: as §1
# [19] = target: Gal3S(b1-3)[Fuc(a1-4)]GlcNAc
# How it was run: as §1
binder,measurement,setting,value
B1,glycan array binding signal (z-score),[1],1.71
same,glycan array binding signal (z-score),[2],-0.194
same,glycan array binding signal (z-score),[3],1.24
same,glycan array binding signal (z-score),[4],1.3
same,glycan array binding signal (z-score),[5],-0.067
same,glycan array binding signal (z-score),[6],0.712
same,glycan array binding signal (z-score),[7],-0.065
same,glycan array binding signal (z-score),[8],-0.199
same,glycan array binding signal (z-score),[9],-0.378
same,glycan array binding signal (z-score),[10],-0.276
same,glycan array binding signal (z-score),[11],-0.34
same,glycan array binding signal (z-score),[12],-0.151
same,glycan array binding signal (z-score),[13],-0.3
same,glycan array binding signal (z-score),[14],-0.267
same,glycan array binding signal (z-score),[15],-0.353
same,glycan array binding signal (z-score),[16],-0.186
same,glycan array binding signal (z-score),[17],0.163
same,glycan array binding signal (z-score),[18],-0.332
same,glycan array binding signal (z-score),Gal(b1-4)GlcNAc6P,-0.119
same,glycan array binding signal (z-score),Gal(b1-6)Gal,-0.254
same,glycan array binding signal (z-score),Gal3S(b1-3)GalNAc,-0.314
same,glycan array binding signal (z-score),Gal3S(b1-3)GlcNAc,-0.367
same,glycan array binding signal (z-score),[19],-0.345
